Measurements as given in the supplement of paper PMC9433436.
± gives the standard deviation of the averaged measurements. Over roughly 4,100 sequences, “relative kcat/Km (krel) vs genomic leader AAAGAU” has its median near 1.7; the highest 2% begin near 6.5. This is a selection; strong and weak results do not stand in their true shares.

Molecular target: T1, E. coli RNase P holoenzyme (M1 P RNA + rnpA protein) (UniProt P0A7Y8)
T1 sequence: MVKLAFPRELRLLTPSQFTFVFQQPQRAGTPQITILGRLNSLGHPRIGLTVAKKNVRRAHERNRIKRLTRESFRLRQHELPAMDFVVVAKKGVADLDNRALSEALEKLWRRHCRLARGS
Assay: relative kcat/Km (krel) vs genomic leader AAAGAU (relative (reference leader = 1)); higher = faster RNase P cleavage
Method: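 HTS-Kin: a pool of ptRNA-Met (21C construct) with all 4096 combinations of 5' leader nucleotides N(-6) to N(-1) was processed in vitro by E. coli RNase P (P RNA + rnpA/C5 protein) under multiple-turnover conditions at 37 C, pH 8, 17.5 mM MgCl2. Residual substrate was Illumina-sequenced at several fractions reacted, and relative kcat/Km (krel) was computed by internal competition kinetics, calibrated to the genomic leader (AAAGAU = 1). The listed hexamer is the varied N(-6)..N(-1) leader (DNA letters), and it sits between a fixed 5' stem-loop flank (GCAUGCACGAAAGUGCGUGCUAUGAA) and the mature tRNA-Met starting GGCUACGUAGCUCAGUUGG. Two technical replicates are averaged.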

[1] = fraction of substrate reacted: ~9-10% (9.79% repeat 1, 9.1% repeat 2)
[2] = fraction of substrate reacted: ~13-16% (15.68% repeat 1, 13.17% repeat 2)
[3] = fraction of substrate reacted: ~26-29% (28.66% repeat 1, 26.4% repeat 2)

Sequence	relative kcat/Km [1]	relative kcat/Km [2]	relative kcat/Km [3]
ACCACA	1.78 ± 1	1.18 ± 0.031	2.93 ± 0.38
AGCACA	1.61 ± 0.69	1.7 ± 0.22	2.75 ± 1.6
CTGAAC	1.4 ± 0.43	1.56 ± 0.17	2.89 ± 0.17
CGGGGA	0.804 ± 0.45	0.952 ± 0.8	1.26 ± 0.75
GAACAC	2.51 ± 0.54	2.49 ± 0.41	3.79 ± 2
TTCACG	2.05 ± 1.9	2.41 ± 0.2	4.56 ± 1.4
GGGGGT			1.64 ± 0.64
ATGGGG			1.04 ± 1
GATAAC	2.1 ± 0.44	2.81 ± 0.13	3.66 ± 1
CCGGTC	1.09 ± 0.83		0.988 ± 0.48
AGAGCC		1.08 ± 1	1.95 ± 0.056
CGGTGA	1.04 ± 0.013	0.427 ± 0.36	0.796 ± 0.33
CAGACT	2.31 ± 0.19	1.6 ± 0.15	2.11 ± 0.27
AACATC	2.81 ± 1.3	3.41 ± 0.46	4.4 ± 1.2
CAGGGG	0.431 ± 0.11	0.26 ± 0.073	0.793 ± 0.55
ACCGCA	2.69 ± 0.93	3.53 ± 1.4	4.14 ± 1.6
AGTTGC	2.29 ± 0.63	2.8 ± 0.55	4.49 ± 2.1
ATGTAA	2.29 ± 0.4	3.54 ± 0.58	4.88 ± 1.9
GACCCA	1.36 ± 0.79	1.59 ± 0.45	2.89 ± 0.71
CGCTGT	0.749 ± 0.51	0.633 ± 0.6	1.15 ± 0.76
GTAAAC	1.67 ± 0.13	2.42 ± 0.47	3.36 ± 1.4
GCTTCA	0.727 ± 0.029	0.854 ± 0.8	1.42 ± 0.3
GTGCAT	1.15 ± 0.62	1.26 ± 0.058	1.52 ± 0.4
CAGTGC	1.87 ± 0.55	1.62 ± 0.28	1.98 ± 0.55
CATAGC	1.96 ± 0.68	2.77 ± 0.47	3.61 ± 0.73
TTCGCG		2.32 ± 0.79	3.87 ± 0.24
AACTTG			1.19 ± 0.33

Sequence	relative kcat/Km [1]	relative kcat/Km [2]	relative kcat/Km [3]
AAAGCA	1.71 ± 0.91	1.3 ± 0.37	0.913 ± 0.27
AGAGGA	0.113 ± 0.087		
CGAGGG	0.555 ± 0.24		0.283 ± 0.06
CGTGAC	2.55 ± 0.44	2.77 ± 1.6	3.37 ± 1.4
AGACAT	2.34 ± 0.18	3.58 ± 0.94	4.74 ± 2.3
TGGGTC			1.63 ± 1.5
CCATTA	2.6 ± 0.39	2.38 ± 0.72	2.61 ± 0.68
TACCAG	2.73 ± 1.4	2.64 ± 1.1	4.81 ± 1.2
AAAAAG			0.847 ± 0.13
GACATC	3.66 ± 0.77	3.95 ± 1.1	5.9 ± 2.2
TAGGAC	1.76 ± 1.3	2.22 ± 0.8	2.48 ± 1.2
ATTCGG			1.2 ± 0.042
GCAACC	0.531 ± 0.17	0.582 ± 0.035	0.799 ± 0.41
AAACAG	0.87 ± 0.18		1.39 ± 0.38
TTTGTG			0.542 ± 0.42
AAGTCT	2.19 ± 1.6	2.24 ± 0.11	2.86 ± 1.1
TGGGAG			0.583 ± 0.23
ACGCTC	1.61 ± 0.3	1.74 ± 0.24	2.13 ± 0.26
ATCAAC	3.56 ± 1.5	4.05 ± 0.78	5.86 ± 1.6
GGCTAG			2.56 ± 0.45
GGGACG			0.813 ± 0.32
AGCTAG	2.24 ± 1.8	1.65 ± 0.16	3.35 ± 1.1
TTTACG		0.527 ± 0.33	1.78 ± 0.3
CCCAGG	1.3 ± 0.88	0.359 ± 0.013	1.37 ± 0.24
ACAAGG	0.983 ± 0.75	0.489 ± 0.23	0.806 ± 0.46
CCTTGA	3.04 ± 1.9	3.16 ± 0.61	4.31 ± 0.98
